This is one part of the list.

For the assay, the system named is PfAP2-HC AP2 domain (GST-tagged). Briefly: gcPBM binding intensity (ln(normalized median fluorescence intensity)); higher = stronger DNA binding. The method, boiled down: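 Binding intensity is defined as the maximum Masliner-normalised natural-log median intensity across replicate spots for either probe orientation. It was measured on an Agilent 4 × 180k array of primer-extended double-stranded 36-bp intergenic genomic probes and negative controls, to which GST-tagged P. falciparum DNA-binding domains made in E. coli were applied for 1 h in 1× PBS with 1% milk, 0.2 mg/ml BSA, 0.5% salmon testes DNA and 0.03% Triton X-100. Detection was by Alexa488 anti-GST antibody and scanning at 488 nm.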
Take “AAAAAAAAAAAAACAAGTACAAAGGATAGAAAAAAA [XGTACX_site4133]”: the “gcPBM binding intensity (ln)” value was determined as 9.82.

Consider “ATAGAATATTGATATTGTACGTTATCTTAAAACAAT [XGTACX_site1702]”, for which the “gcPBM binding intensity (ln)” value is 9.53.

Take “ATAAGAACGTCTATGTGTACGCAGCAAAACTGAGTT [XGTACX_site6385]”: the “gcPBM binding intensity (ln)” value was determined as 9.63.

As to “TTCTCAAAGAAGAAAAAGTTTTTTTAATTTTTCTTT [XGTACX_negctrl_site543]”, the “gcPBM binding intensity (ln)” value worked out at 9.32.

With “AACCAATTATATTTACGTACGTACGGTTTTTTATAT [XGTACX_site1291]”, the “gcPBM binding intensity (ln)” value turned out to be 10.1.

Regarding “AATAAAAAATATAACACAAATATGTATATATATATA [TGCATGCA_negctrl_site245]”, the “gcPBM binding intensity (ln)” value amounted to 9.81.

Regarding “ACATATAAAATGTATACACACAAATATTACATATAT [CACACA_site1472]”, the “gcPBM binding intensity (ln)” value is 10.

For “CAAAAAAAAAAAAAAAATAAATAAAGGAAATAAAAA [CACACA_negctrl_site20]”, the “gcPBM binding intensity (ln)” value came to 9.33.

For the sequence “AATATATTTTTTTTTTGTACATATTGTAAAATAATA [XGTACX_site6805]”, the “gcPBM binding intensity (ln)” value is 9.45.

Regarding “ATATATTAATATACTCGTACATATTCTTATTGTGTA [XGTACX_site3728]”, the “gcPBM binding intensity (ln)” value was determined as 9.71.

With “TATATATATTTCCAGTGTACTTATTTTTTAATCAAT [XGTACX_site8220]”, the “gcPBM binding intensity (ln)” value was found to be 9.55.

Take “TCCTCAAAAAAATAAAATAATTTATACTTTTTTAAA [GTGCAC_negctrl_site724]”: the “gcPBM binding intensity (ln)” value is 9.38.

Regarding “CACATTTAGAAATAGTTTTATTTTGTATATTCTATT [CACACA_negctrl_site1382]”, the “gcPBM binding intensity (ln)” value was 9.65.

Consider “TATACATTTATGTACACACACATATCTGTATATTTA [CACACA_site5617]”, for which the “gcPBM binding intensity (ln)” value came out at 10.1.

As to “TTTTGTATATATCACATTAAAAGAAAAAAATATATG [GTGCAC_negctrl_site120]”, the “gcPBM binding intensity (ln)” value came out at 9.37.

“GTATGTGTATGTGTATGTACATATGTATGTATAAAA [XGTACX_site8191]”: the “gcPBM binding intensity (ln)” value stood at 9.89.

On to “AATTAGACATAATATACACACATATATTATATATAT [CACACA_site2691]”, for which the “gcPBM binding intensity (ln)” value turned out to be 9.93.

As for TTCAAAAGATATATCGTGCACATATATATGATGAAA, the “gcPBM binding intensity (ln)” value is 9.77.

In the case of “ATTTTTTTGGAATTCACACACAAAAAAAAAAATAAA [CACACA_site2081]”, the “gcPBM binding intensity (ln)” value is 9.83.

For “ATGTTGAGTATATATACACACATACAGATATATATA [CACACA_site4967]”, the “gcPBM binding intensity (ln)” value was 9.82.

As for “TAGGTATATAAATAATGTACATATAAACTATATAGA [XGTACX_site2597]”, the “gcPBM binding intensity (ln)” value was 9.74.

Regarding “TCCACACAATTTATAACATGCAAAAAGGCAATAATA [TGCATGCA_site773]”, the “gcPBM binding intensity (ln)” value was 9.57.

As for “TGGAGATAAAATAAAACACACACATATATATATATA [CACACA_site8683]”, the “gcPBM binding intensity (ln)” value was found to be 9.9.

“ATACATTCTTATTACTGTACAGGGTTAATTATTTGT [XGTACX_site948]”: the “gcPBM binding intensity (ln)” value is 9.74.

Consider “ATTATTTTATTTATTGGTACGTAATTGTAGATTTCT [XGTACX_site3697]”, for which the “gcPBM binding intensity (ln)” value was 9.63.

As to “GCAAAAACAAACGTCACACATACAAAGGCCGTGTAA [CACACA_site6043]”, the “gcPBM binding intensity (ln)” value was determined as 9.85.

For the sequence TTCGCCCTAAATAGAGTGCATTATATATATTAATAT, the “gcPBM binding intensity (ln)” value came to 9.65.

With “TTCCAACCAATACAAACATGCATTTGAAAAAATGTA [TGCATGCA_site119]”, the “gcPBM binding intensity (ln)” value worked out at 9.55.

In the case of “ATAAAATAAATATAACCACACACGAAAGAGAGAGAA [CACACA_site9075]”, the “gcPBM binding intensity (ln)” value came out at 10.2.

Consider “TTTTTAGGAAAGGCGGCACACATTTATATATTTATT [CACACA_site3672]”, for which the “gcPBM binding intensity (ln)” value is 9.81.

“AGCAGTCAGCAGGACAGTACACAGTAGCCAGTAACT [XGTACX_site1999]”: the “gcPBM binding intensity (ln)” value stood at 9.53.

Regarding “TTTATTTTATCATTTGCACACGCACGCCCACATAAA [CACACA_site353]”, the “gcPBM binding intensity (ln)” value was 9.86.

As to “CAAAATATATTGAATTGTACATAAAAATAAAAATTA [XGTACX_site4193]”, the “gcPBM binding intensity (ln)” value was 9.62.

Regarding “CATATAAAAGGACACACACACACATATATATATATA [CACACA_site4674]”, the “gcPBM binding intensity (ln)” value worked out at 11.6.

For the sequence “TATTTTATTTTTTGTTGTACATATATATTATATATA [XGTACX_site4513]”, the “gcPBM binding intensity (ln)” value came out at 9.77.

Regarding “ATATGTAAAATATGGTGTACAATCAAATAAAAAAAA [XGTACX_site6270]”, the “gcPBM binding intensity (ln)” value came out at 9.95.

“ATTAATATATTTACCACACACCCATTTCGATTTTAT [CACACA_site3605]”: the “gcPBM binding intensity (ln)” value was 10.3.

Turning to “AATATATATATATATCCACACACATACATATATTAA [CACACA_site7907]”, the “gcPBM binding intensity (ln)” value was determined as 10.2.

As for “AAAATATTATTACAGAAACAAAAAGAAAAATATATA [GTGCAC_negctrl_site285]”, the “gcPBM binding intensity (ln)” value was found to be 9.7.

For the sequence “ATGGTTTTTATTTTATGTACTTACTAAAATGAATAA [XGTACX_site4317]”, the “gcPBM binding intensity (ln)” value came out at 9.49.

On to “TACATAAAAATATATGCATGTTCTTATTTAATAAAA [TGCATGCA_site743]”, for which the “gcPBM binding intensity (ln)” value came to 9.3.

“GATATATTACTTAAAATACACACCATGGAAAAGTTT [CACACA_site2606]”: the “gcPBM binding intensity (ln)” value was determined as 9.7.

As for “GAATATGTTAACATTTGTACATAAAATTTTTTACAA [XGTACX_site2444]”, the “gcPBM binding intensity (ln)” value was 9.49.

Turning to “ATGTTTAAATTTTTCAGTACATATATTCTAGTAAAA [XGTACX_site1010]”, the “gcPBM binding intensity (ln)” value is 9.36.

Values taken from the supplement of paper PMC11417369.
